Results as given in patent US20240025993A1, “CD19 BINDING MOLECULES AND USES THEREOF” (NOVARTIS AG, priority 2020, published 2024).

Key:
Karpas422-luc cells = test: RTCC assay with BBMs (Example 2); type: cell-based, human
Procedure: (§1) A RTCC assay with the BBMs of Example 1A was performed to measure the ability of the BBMs to elicit RTCC against CD19+ Nalm6-luc and Karpas422-luc cells. Nalm-6 is a human B cell precursor leukemia cell line and Karpas422 is a human B-cell non-hodgkin lymphoma cell line. Briefly, Nalm6 and Karpas422 cells engineered to express the firefly luciferase reporter gene were cultured in RPM 11640 culture media with 10% fetal bovine serum (FBS). 10,000 target cells with serial diluted BBMs or gH isotype antibody control (αgH-CD3hi) were seeded on 384-well flat-bottom microtiter plate. Primary human T cells were isolated from cryopreserved peripheral blood mononuclear cells (PBMCs) and expanded using anti-CD3 and anti-CD28 dynabeads (Thermo fisher, catalog #11131 D) and subsequently cryopreserved. Expanded T cells were thawed and aliquoted to the plate to achieve an effector cell (i.e., T cell) to target cell (i.e., cancer cell) ratio (E:T ratio) of 3:1. Plates were incubated in a 37° C. incubator with 5% CO2 overnight. Following the co-incubation, Bright Glo (Promega, catalog #E2620) was added to all wells and the luminescence signal was subsequently measured on an Envision (Perkin Elmer). Target cells with Bright Glo served as maximal signal. The percent RTCC of target cells was calculated using the following formula: [100−(sample/maximal signal)*100%].

Nalm6-luc cells = test: RTCC assay with BBMs (Example 2); type: cell-based, human
Procedure: as §1

Karpas422 target cells = test: Re-directed T cell cytotoxicity by CD19 TBMs (Example 7); type: cell-based, human; conditions: E:T 3:1 or 5:1; 24, 48, 72 or 96 hr; two T cell donors; R variants
Procedure: (§2) In one study, the TBMs were compared across multiple donor effector cells. Briefly, huCD19-expressing Nalm6 or Karpas422 target cells were engineered to overexpress firefly luciferase. Cells were harvested and resuspended in RPMI medium (Invitrogen #11875-093) with 10% FBS. 2,500 target cells per well were plated in a flat-bottom 384-well plate. Human pan T effector cells were isolated via MACS negative selection (Miltenyi Biotec #130-096-535) from two donors from cryopreserved PBMC (Cellular Technologies Limited #CTL-UP1) then added to the plate to obtain a final E:T ratio of 3:1 or 5:1. Co-cultured cells were incubated with a serial dilution of all constructs and controls. For normalization, average maximum luminescence refers to target cells co-incubated with effector cells, but without any test construct. After an incubation of 24, 48, 72 or 96 hr at 37° C., 5% CO2, OneGlo luciferase substrate (Promega #E6120) was added to the plate. Luminescence was measured on an Envision plate reader after a 10 minute incubation. Percent specific lysis was calculated using the following equation: Specific lysis (%)=(1−(sample luminescence/average maximum luminescence))*100

Nalm6 target cells = test: as above; type: cell-based, human; conditions: E:T 3:1 or 5:1; 24, 48, 72 or 96 hr; two T cell donors; R variants
Procedure: as §2

[1] = tested on: T cells co-cultured with Nalm6 target cells; test: Cytokine release assay, multiplexed ELISA (Example 10); type: cell-based, human; conditions: E:T 5:1, 24 hr; R variants
Procedure: Briefly, huCD19-expressing Nalm6 target cells were harvested and resuspended in RPMI medium with 10% FBS. 20,000 target cells per well were plated in a flat-bottom 96-well plate. Human pan T effector cells were isolated via MACS negative selection from cryopreserved PBMC then added to the plate to obtain a final E:T ratio of 5:1. Co-cultured cells were incubated with serial dilutions of all constructs and controls. After an incubation of 24 hr at 37° C., 5% CO2, the supernatants were harvested by centrifugation at 300×g for 5 min for subsequent analysis.
A multiplexed ELISA was performed according to the manufacturer's instructions using a V-PLEX Proinflammatory Panel 1 Kit (MesoScale Discovery #K15049D).

[2] = tested on: wild type 300.19 cell line; test: Binding of TBMs to wild type 300.19 cells (Example 11); design: species or system mouse; conditions: flow cytometry; R variants
Procedure: The mouse cell line 300.19 was engineered to overexpress either human CD19 or cyno CD19. Cells were cultured in RPMI medium (Invitrogen #11875-093) with 10% FBS and 2-mercaptoethanol. Cells were harvested and resuspended in FACS buffer (PBS containing 1% FBS). 50,000 cells per well were plated in a V-bottom 96-well plate. Each cell line was incubated with serial dilutions of TBMs of Example 1A (i.e., R variants) for one hour on ice. Cells were centrifuged for 4 min at 400×g and washed with FACS buffer. This was repeated twice, and then the cells were incubated with Alexa-647 labeled anti-human Fc secondary antibody (Jackson Immuno #109-605-098) for 30 min on ice. The cells were washed twice, then resuspended in 100 μL of FACS buffer. FACS data was collected on a Beckman Coulter Cytoflex and analysis was performed using CytExpert v2.3.

B1: NEG218-based BBM: bispecific of Example 1A: NEG218 anti-CD19 half antibody and CD3hi anti-CD3 scFv-Fc, knob-into-hole (antibody)
heavy: EVQLVQSGAEVKKPGESLKISCKASGYSFTNYWMNWVRQMPGKGLEWMGMIHPSDSEIRLNQKFQGQVTLSVDKSIGTAYMQWSSLKASDTAMYYCSRWYYLSSPMDYWGQGTTVTVSSASTKGPSVFPLAPSSKSTSGGTAALGCLVKDYFPEPVTVSWNSGALTSGVHTFPAVLQSSGLYSLSSVVTVPSSSLGTQTYICNVNHKPSNTKVDKRVEPKSCDKTHTCPPCPAPELLGGPSVFLFPPKPKDTLMISRTPEVTCVVVAVSHEDPEVKFNWYVDGVEVHNAKTKPREEQYASTYRVVSVLTVLHQDWLNGKEYKCKVSNKALAAPIEKTISKAKGQPREPQVCTLPPSREEMTKNQVSLSCAVKGFYPSDIAVEWESNGQPENNYKTTPPVLDSDGSFFLVSKLTVDKSRWQQGNVFSCSVMHEALHNHYTQKSLSLSPGK
light: EIVMTQSPATLSVSPGERATLSCRASQDVGTAVAWYQQKPGQAPRLLIYWASTRHTGIPARFSGSGSGTEFTLTISSLQSEDFAVYFCQQYSSYPYTFGQGTKLEIKRTVAAPSVFIFPPSDEQLKSGTASVVCLLNNFYPREAKVQWKVDNALQSGNSQESVTEQDSKDSTYSLSSTLTLSKADYEKHKVYACEVTHQGLSSPVTKSFNRGEC
chain: EVQLVESGGGLVQPGGSLKLSCAASGFTFNTYAMNWVRQASGKGLEWVGRIRSKYNNYATYYADSVKDRFTISRDDSKSTLYLQMNSLKTEDTAVYYCVRHGNFGNSYVSWFAYWGQGTLVTVSSGGGGSGGGGSGGGGSGGGGSQAVVTQEPSLTVSPGGTVTLTCRSSTGAVTTSNYANWVQQKPGQAPRGLIGGTNKRAPWTPARFSGSLLGDKAALTLSGAQPEDEAEYFCALWYSNLWVFGGGTKLTVLGGGGSDKTHTCPPCPAPELLGGPSVFLFPPKPKDTLMISRTPEVTCVVVAVSHEDPEVKFNWYVDGVEVHNAKTKPREEQYASTYRVVSVLTVLHQDWLNGKEYKCKVSNKALAAPIEKTISKAKGQPREPQVYTLPPCREEMTKNQVSLWCLVKGFYPSDIAVEWESNGQPENNYKTTPPVLDSDGSFFLYSKLTVDKSRWQQGNVFSCSVMHEALHNRYTQKSLSLSPGK
For B1, the “redirected T-cell cytotoxic activity (RTCC)” value (Karpas422-luc cells) was “mediated RTCC activity” and the “redirected T-cell cytotoxic activity (RTCC)” value (Nalm6-luc cells) was “mediated RTCC activity”.

B2: NEG258-based TBM: TBM of Example 1A with NEG258-based CD19 binding arm; probably CD3hi TSP1 (R variant) (antibody)
heavy: QVQLVQSGAEVKKPGASVKVSCKASGYTFTTYWIQWVRQAPGQRLEWMGAVYPGDADTRYTQKFQGRVTLTADRSASTAYMELSSLRSEDTAVYYCGRDAGLEYYALDYWGQGTLVTVSSASTKGPSVFPLAPSSKSTSGGTAALGCLVKDYFPEPVTVSWNSGALTSGVHTFPAVLQSSGLYSLSSVVTVPSSSLGTQTYICNVNHKPSNTKVDKRVEPKSCGGGGSGGGGSEVQLVESGGGLVQPGGSLKLSCAASGFTFNTYAMNWVRQASGKGLEWVGRIRSKYNNYATYYADSVKDRFTISRDDSKSTLYLQMNSLKTEDTAVYYCVRHGNFGNSYVSWFAYWGQGTLVTVSSGGGGSGGGGSGGGGSGGGGSQAVVTQEPSLTVSPGGTVTLTCRSSTGAVTTSNYANWVQQKPGQAPRGLIGGTNKRAPWTPARFSGSLLGDKAALTLSGAQPEDEAEYFCALWYSNLWVFGGGTKLTVLGGGGSDKTHTCPPCPAPELLGGPSVFLFPPKPKDTLMISRTPEVTCVVVAVSHEDPEVKFNWYVDGVEVHNAKTKPREEQYASTYRVVSVLTVLHQDWLNGKEYKCKVSNKALAAPIEKTISKAKGQPREPQVCTLPPSREEMTKNQVSLSCAVKGFYPSDIAVEWESNGQPENNYKTTPPVLDSDGSFFLVSKLTVDKSRWQQGNVFSCSVMHEALHNHYTQKSLSLSPGK
light: EIVMTQSPATLSVSPGERATLSCRASQDVGTAVAWYQQKPGQAPRLLIYWASTRHTGIPARFSGSGSGTEFTLTISSLQSEDFAVYFCQQYANFPLYTFGQGTKLEIKRTVAAPSVFIFPPSDEQLKSGTASVVCLLNNFYPREAKVQWKVDNALQSGNSQESVTEQDSKDSTYSLSSTLTLSKADYEKHKVYACEVTHQGLSSPVTKSFNRGEC
chain: SQQIYGVVYGNVTFHVPSNVPLKEVLWKKQKDKVAELENSEFRAFSSFKNRVYLDTVSGSLTIYNLTSSDEDEYEMESPNITDTMKFFLYVLESGGGGSDKTHTCPPCPAPELLGGPSVFLFPPKPKDTLMISRTPEVTCVVVAVSHEDPEVKFNWYVDGVEVHNAKTKPREEQYASTYRVVSVLTVLHQDWLNGKEYKCKVSNKALAAPIEKTISKAKGQPREPQVYTLPPCREEMTKNQVSLWCLVKGFYPSDIAVEWESNGQPENNYKTTPPVLDSDGSFFLYSKLTVDKSRWQQGNVFSCSVMHEALHNRYTQKSLSLSPGK
In the case of B2, the “cytotoxic activity (specific lysis)” value (Karpas422 target cells) is reported as “show cytotoxic activity; also recorded: more potent than the NEG218-based TBM”, the “cytotoxic activity (specific lysis)” value (Nalm6 target cells) is reported as “show cytotoxic activity; also recorded: more potent than the NEG218-based TBM” and the “cytokine secretion by T cells (IFN-γ, TNF-α, IL2)” value [1] is reported as “induce significant cytokine secretion by T cells at all dose levels measured”. The “binding to wild type 300.19 cell line” value [2] was “negligible binding”.

B3: NEG218-based TBM: TBM of Example 1A with NEG218-based CD19 binding arm; probably CD3hi TSP2 (R variant) (antibody)
heavy: EVQLVQSGAEVKKPGESLKISCKASGYSFTNYWMNWVRQMPGKGLEWMGMIHPSDSEIRLNQKFQGQVTLSVDKSIGTAYMQWSSLKASDTAMYYCSRWYYLSSPMDYWGQGTTVTVSSASTKGPSVFPLAPSSKSTSGGTAALGCLVKDYFPEPVTVSWNSGALTSGVHTFPAVLQSSGLYSLSSVVTVPSSSLGTQTYICNVNHKPSNTKVDKRVEPKSCGGGGSGGGGSEVQLVESGGGLVQPGGSLKLSCAASGFTFNTYAMNWVRQASGKGLEWVGRIRSKYNNYATYYADSVKDRFTISRDDSKSTLYLQMNSLKTEDTAVYYCVRHGNFGNSYVSWFAYWGQGTLVTVSSGGGGSGGGGSGGGGSGGGGSQAVVTQEPSLTVSPGGTVTLTCRSSTGAVTTSNYANWVQQKPGQAPRGLIGGTNKRAPWTPARFSGSLLGDKAALTLSGAQPEDEAEYFCALWYSNLWVFGGGTKLTVLGGGGSDKTHTCPPCPAPELLGGPSVFLFPPKPKDTLMISRTPEVTCVVVAVSHEDPEVKFNWYVDGVEVHNAKTKPREEQYASTYRVVSVLTVLHQDWLNGKEYKCKVSNKALAAPIEKTISKAKGQPREPQVCTLPPSREEMTKNQVSLSCAVKGFYPSDIAVEWESNGQPENNYKTTPPVLDSDGSFFLVSKLTVDKSRWQQGNVFSCSVMHEALHNHYTQKSLSLSPGK
light: EIVMTQSPATLSVSPGERATLSCRASQDVGTAVAWYQQKPGQAPRLLIYWASTRHTGIPARFSGSGSGTEFTLTISSLQSEDFAVYFCQQYSSYPYTFGQGTKLEIKRTVAAPSVFIFPPSDEQLKSGTASVVCLLNNFYPREAKVQWKVDNALQSGNSQESVTEQDSKDSTYSLSSTLTLSKADYEKHKVYACEVTHQGLSSPVTKSFNRGEC
chain: SQQIYGVVYGNVTFHVPSNVPLKEVLWKKQKDKVAELENSEFRAFSSFKNRVYLDTVSGSLTIYNLTSSDEDEYEMESPNITDTMKFFLYVLESGGGGSDKTHTCPPCPAPELLGGPSVFLFPPKPKDTLMISRTPEVTCVVVAVSHEDPEVKFNWYVDGVEVHNAKTKPREEQYASTYRVVSVLTVLHQDWLNGKEYKCKVSNKALAAPIEKTISKAKGQPREPQVYTLPPCREEMTKNQVSLWCLVKGFYPSDIAVEWESNGQPENNYKTTPPVLDSDGSFFLYSKLTVDKSRWQQGNVFSCSVMHEALHNRYTQKSLSLSPGK
B3 was tested, and the “cytotoxic activity (specific lysis)” value (Karpas422 target cells) was “show cytotoxic activity”, the “cytotoxic activity (specific lysis)” value (Nalm6 target cells) was “show cytotoxic activity” and the “cytokine secretion by T cells (IFN-γ, TNF-α, IL2)” value [1] was “induce significant cytokine secretion by T cells at all dose levels measured”. For the same molecule, the “binding to wild type 300.19 cell line” value [2] was “negligible binding”.

“Also recorded” adds a separate entry of the source.
